# Laboratory results taken from publication PMC6212790.
# Some of the results follow. At the low end of the ranking, values are background and their order means little.
# Target: T1, GST-Rok-C97-191 (UniProt O34857)
# T1 sequence: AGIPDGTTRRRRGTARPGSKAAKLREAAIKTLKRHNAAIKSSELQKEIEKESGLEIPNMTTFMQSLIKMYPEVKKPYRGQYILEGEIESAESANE
# Assay: protein binding microarray;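 note: rank score from −0.5 (least bound) to 0.5 (best bound)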
# Conditions: Rok is a gene silencer of Bacillus subtilis; high values mean tight binding; most listed sequences are background and not binding sites; double strand, one strand shown
row,Sequence,binding signal
1,CTTTCGGA,-0.0395 E-score
2,CCCTTAAA,-0.0685 E-score
3,CAACGTTC,-0.0525 E-score
4,CACCTTCA,-0.15 E-score
5,CGCCCGGA,-0.118 E-score
6,CACGATAC,-0.0773 E-score
7,AAAGCTGG,0.124 E-score
8,ACGCCTCT,-0.238 E-score
9,ATTGACGA,-0.000157 E-score
10,CATAGGAG,0.02 E-score
11,CCTTGTCC,-0.199 E-score
12,GACATCAC,-0.254 E-score
13,GGAGAACC,0.0463 E-score
14,ACGAAGCA,-0.0561 E-score
15,AACTCCAA,-0.228 E-score
16,TATTAAGA,0.145 E-score
17,CCACGGAG,-0.246 E-score
18,AAAATTTC,0.121 E-score
19,ATACAAGA,0.0874 E-score
20,AAGTGTGA,0.162 E-score
21,AACGGCAT,-0.151 E-score
22,CGCAGCGC,0.0339 E-score
23,CTGACGCC,-0.335 E-score
24,CATCGGTC,-0.105 E-score
25,ACGGTACC,0.0253 E-score

row,Sequence,binding signal
1,ACTGGACC,-0.229 E-score
2,CTCCTGTA,-0.0704 E-score
3,ATGATCCA,0.0416 E-score
4,GGAAATAA,0.161 E-score
5,GGTTGGCA,-0.214 E-score
6,AATAATGC,0.295 E-score
7,AACGAACC,0.0441 E-score
8,ACCTGAGT,-0.185 E-score
9,CGCAAGCG,-0.193 E-score
10,GTGTTGTA,0.158 E-score
11,CACACTTC,0.141 E-score
12,CCGCAGGA,-0.137 E-score
13,CATACTGC,0.0241 E-score
14,AACGGTTC,0.121 E-score
15,GATTCATA,0.23 E-score
16,ATTCCTGG,-0.212 E-score
17,AGCTCATC,0.11 E-score
18,GCTCTGTA,-0.0553 E-score
19,CTACTTGA,0.0483 E-score
20,GGGACTAA,0.0775 E-score
21,TACAGACA,0.0961 E-score
22,ACCTGTGG,-0.112 E-score
23,AGCCTTGA,-0.13 E-score
24,ACAGAATG,-0.0496 E-score
25,ATGGGCGC,-0.157 E-score

row,Sequence,binding signal
1,CCATAGTC,0.0206 E-score
2,ATCAATAC,0.136 E-score
3,CGCAATCC,-0.208 E-score
4,AGAACCTA,0.212 E-score
5,CTTTTCGC,0.226 E-score
6,CCCAAGCG,-0.224 E-score
7,GTCCGCGA,0.0293 E-score
8,TGAGCTAA,0.0565 E-score
9,ATTCGCTG,0.0111 E-score
10,CCCCTTAC,-0.322 E-score
11,TGCAGCCA,-0.132 E-score
12,ATATGTAG,0.386 E-score
13,CCGTCCTC,-0.343 E-score
14,AAGTGAGT,0.0981 E-score
15,CGCCCAAC,-0.0627 E-score
16,GCATATAC,0.18 E-score
17,CAGAGAAC,-0.118 E-score
18,CTGTATCC,-0.0696 E-score
19,GGGGAACC,-0.322 E-score
20,GTGGGTCA,-0.167 E-score
21,AACGAAAG,0.162 E-score
22,AAGTTAAT,0.195 E-score
23,GGTAGTCA,0.192 E-score
24,GCCTCGCA,-0.272 E-score
25,AACAAAGT,0.0493 E-score

row,Sequence,binding signal
1,AGAGCCAT,-0.255 E-score
2,TGGATCCA,-0.149 E-score
3,CGGTGGAA,-0.0743 E-score
4,GACTTATC,0.0621 E-score
5,AGGCGAAC,-0.0431 E-score
6,AAGCGTAT,-0.00415 E-score
7,GATTATAA,0.251 E-score
8,CACCCCGG,-0.292 E-score
9,CCAAGGGA,-0.167 E-score
10,CCGTCCCG,-0.191 E-score
11,AATTGTCC,0.0642 E-score
12,ACGGTGAT,-0.0268 E-score
13,GGGCAGCA,-0.117 E-score
14,TCCTAAGA,-0.0657 E-score
15,AGGTCAAG,-0.0455 E-score
16,GAAGATGA,-0.0218 E-score
17,GCCCGCCA,-0.227 E-score
18,GTCGGGGA,-0.195 E-score
19,AGCGTAAG,-0.0539 E-score
20,CAAAGAGC,-0.382 E-score
21,ATGCCATG,-0.0764 E-score
22,AGAAACCA,0.183 E-score
23,CACCCCTC,-0.325 E-score
24,CGAACGGA,-0.0748 E-score
25,CGGATTTA,0.113 E-score

row,Sequence,binding signal
1,CGCTCACC,0.0129 E-score
2,AGTTTCAC,0.15 E-score
3,CATGACCG,-0.124 E-score
4,CACCCCAG,-0.267 E-score
5,TATTAAAA,0.189 E-score
6,GTCTAACA,-0.0252 E-score
7,GAGGGCTA,-0.148 E-score
8,ACAACGTA,0.164 E-score
9,CGTTGCAC,-0.135 E-score
10,AGACTCAA,-0.0392 E-score
11,CGTGGCCC,-0.144 E-score
12,CGGAGAAC,0.0827 E-score
13,ACGTGATA,0.18 E-score
14,ATATTGTG,0.214 E-score
15,CACCGTAG,-0.134 E-score
16,GACAGTGA,-0.0283 E-score
17,CGCAATGC,0.00515 E-score
18,AGTAACGA,0.158 E-score
19,GCTTCTAA,-0.0223 E-score
20,GGTCAAAA,0.0262 E-score
21,CAGGGCGC,-0.346 E-score
22,CGTTCGAA,0.00753 E-score
23,ATTCGGGA,-0.127 E-score
24,CCGCATCA,-0.175 E-score
25,CCCGGGAC,-0.264 E-score

row,Sequence,binding signal
1,GCACTCGA,-0.0312 E-score
2,AGCCACTA,-0.0182 E-score
3,GCAATACC,0.182 E-score
4,TAGGCGGA,-0.195 E-score
5,CCGGTTGA,-0.189 E-score
6,GAGATCCC,-0.215 E-score
7,CGCACTGC,0.0347 E-score
8,CCAAATAA,0.0547 E-score
9,CGCGGGAA,-0.102 E-score
10,ATTTAGCG,0.199 E-score
11,CCCATACG,-0.00324 E-score
12,CGTCGCCA,-0.169 E-score
13,ATATAAGC,0.246 E-score
14,AATTTTGC,0.187 E-score
15,CCCTCACC,-0.223 E-score
16,AAGATCTT,0.0434 E-score
17,AGCTGAAC,-0.0772 E-score
18,TCGTTGAA,0.0633 E-score
19,AAACAAGG,-0.221 E-score
20,CGCCTGCC,-0.215 E-score
21,TAGGTATA,0.287 E-score
22,CGACGCGA,-0.16 E-score
23,AAGAAGTC,-0.0567 E-score
24,GCTAGCAA,0.243 E-score
25,AGCGATAC,0.0419 E-score

row,Sequence,binding signal
1,TTAACAAA,0.142 E-score
2,GCGCCGAA,-0.219 E-score
3,GCGCGCCC,-0.42 E-score
4,AGCGTACA,0.079 E-score
5,AAAAAGTC,-0.0811 E-score
6,GGTAATAA,0.274 E-score
7,GCTATCAC,0.242 E-score
8,GAGAGGTA,0.0151 E-score
9,ATGTGGGC,-0.229 E-score
10,ACCGGAAA,-0.1 E-score
11,GCACCACA,0.0153 E-score
12,CTGCTGGA,-0.128 E-score
13,AAAAAAAA,0.124 E-score
14,TCACGCAA,-0.0935 E-score
15,GTAAAAAC,0.317 E-score
16,ACCATCGT,-0.223 E-score
17,AGGGTCAA,-0.131 E-score
18,GTTTTACA,0.183 E-score
19,ATCATGCA,-0.121 E-score
20,CCGTTAAC,0.0889 E-score
21,AAGGACTA,-0.0152 E-score
22,ATACCAAC,0.216 E-score
